Measurements published in paper PMC5892938.
Some of the results follow. At the low end of the ranking the order means little.

These sequences were tested against GST-SBP-SLBP (stem-loop binding protein) (UniProt Q14493) (assay: targeted RNA Bind-n-Seq). Conditions: RBNS binding buffer: 25 mM Tris pH 7.5, 150 mM KCl, 3 mM MgCl2, 0.1% Tween, 0.5 mg/mL BSA, 1 mM DTT; 27 nM protein, 750 pM RNA pool; temperature not stated; high values mean tight binding.
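Note: DESeq read counts versus GST-SBP nonspecific binding control pulldown.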

Sequence | binding signal (log2 fold change)
GGUCACGUCUCAAUCAACUCUUAGGAGGGGGGGAAAACCCCUUUACCCUCAAUCUCAACAGCUCGCAGUCAAG | -0.175
GGUCACGUCUCAAUCAACUCAAACGAGGGGGGGAAAACCCCUUUACCCUCCAUAUCAACAGCUCGCAGUCAAG | 0.344
GGUCACGUCUCAAUCAACUCAGUCUCCAGGGAAACCCCUGGCAAAUUCAACAGCUCGCAGUCAAG | -0.418
GGUCACGUCUCAAUCAACUCAACUGAGGGGGGGAAAACCCCUUUACCCUCCAUAUCAACAGCUCGCAGUCAAG | -0.277
GGUCACGUCUCAAUCAACUCAAUGUCAGGAGUUUGCUCCUGCUUUCUCAACAGCUCGCAGUCAAG | -0.0289
GGUCACGUCUCAAUCAACUCUCCAGAGGGGGGGAAAACCCCUUUACCCUCAUAAUCAACAGCUCGCAGUCAAG | -0.789
GGUCACGUCUCAAUCAACUCUAGUCCAGGAGUUUCCUCCUGUAAUUUCAACAGCUCGCAGUCAAG | -0.149
GGUCACGUCUCAAUCAACUCAAUCUCAGGAGUUUUCUCCUGCUAUUUCAACAGCUCGCAGUCAAG | 0.339
GGUCACGUCUCAAUCAACUCAAUUUCCAGGGAAAUCCCUGGUUUAUUCAACAGCUCGCAGUCAAG | -0.0415
GGUCACGUCUCAAUCAACUCUAUAGAGGGGGGGAAAACCCCUUUACCCUCAAUUUCAACAGCUCGCAGUCAAG | -0.228
GGUCACGUCUCAAUCAACUCUUCUCCCAGGGAAACCCCUGGCAAUCUCAACAGCUCGCAGUCAAG | 0.231
GGUCACGUCUCAAUCAACUCUAUUUCCAGGGAAAGCCCUGGUAUUUUCAACAGCUCGCAGUCAAG | 0.0351
GGUCACGUCUCAAUCAACUCAAUCUCCAGGGAAAACCCUGGCUAUUUCAACAGCUCGCAGUCAAG | 0.00637
GGUCACGUCUCAAUCAACUCUUUUUCAGGAGUUUUCUCCUGCAAAUUCAACAGCUCGCAGUCAAG | 0.142
GGUCACGUCUCAAUCAACUCAUUAGAGGGGGGGAAAACCCCUUUACCCUCAUCUUCAACAGCUCGCAGUCAAG | -0.4
GGUCACGUCUCAAUCAACUCUCAAGAGGGGGGGAAAACCCCUUUGCCCUCAACUUCAACAGCUCGCAGUCAAG | 0.148
GGUCACGUCUCAAUCAACUCUUUCUCCAGGGAAAUCCCUGGCAUUUUCAACAGCUCGCAGUCAAG | -0.0484
GGUCACGUCUCAAUCAACUCAUCCCCCAGGGAAACCCCUGGCUAACUCAACAGCUCGCAGUCAAG | 0.0885
GGUCACGUCUCAAUCAACUCAUUUUCCAGGGAAAACCCUGGUAAUUUCAACAGCUCGCAGUCAAG | -0.137
GGUCACGUCUCAAUCAACUCUAUUUCAGGAGUUUACUCCUGUAUACUCAACAGCUCGCAGUCAAG | -0.0451
GGUCACGUCUCAAUCAACUCAGUUUCCAGGGAAAUCCCUGGCUUAUUCAACAGCUCGCAGUCAAG | -0.121
GGUCACGUCUCAAUCAACUCACAAGAGGGGGGGAAAACCCCUUUACCCUCAAUCUCAACAGCUCGCAGUCAAG | -0.0692
GGUCACGUCUCAAUCAACUCCCCAGAGGGGGGGAAAACCCCUUUGCCCUCAAUCUCAACAGCUCGCAGUCAAG | -0.197
GGUCACGUCUCAAUCAACUCAUUCUCAGGAGUUUACUCCUGCUAUUUCAACAGCUCGCAGUCAAG | 0.0743

Sequence | binding signal (log2 fold change)
GGUCACGUCUCAAUCAACUCAAUGUCAGGAGUUUACUCCUGUUUUCUCAACAGCUCGCAGUCAAG | -0.0179
GGUCACGUCUCAAUCAACUCAUCUCCAGGAGUUUUCUCCUGCAUUCUCAACAGCUCGCAGUCAAG | 0.0148
GGUCACGUCUCAAUCAACUCAAUUCCAGGAGUUUCCUCCUGCUAAUUCAACAGCUCGCAGUCAAG | 0.03
GGUCACGUCUCAAUCAACUCAAUCUCCAGGGAAACCCCUGGCAUUUUCAACAGCUCGCAGUCAAG | -0.0834
GGUCACGUCUCAAUCAACUCAUAAGAGGGGGGGAAAACCCCUUUGCCCUCAGAAUCAACAGCUCGCAGUCAAG | -0.256
GGUCACGUCUCAAUCAACUCUUCAGAGGGGGGGAAAACCCCUUUACCCUCAUCUUCAACAGCUCGCAGUCAAG | 0.0819
GGUCACGUCUCAAUCAACUCAAUUUCAGGAGUUUUCUCCUGUAUGUUCAACAGCUCGCAGUCAAG | -0.0374
GGUCACGUCUCAAUCAACUCUUUCUCCAGGGAAACCCCUGGCUUUUUCAACAGCUCGCAGUCAAG | 0.075
GGUCACGUCUCAAUCAACUCAAUUUCAGGAGUUUCCUCCUGCAUUCUCAACAGCUCGCAGUCAAG | -0.045
GGUCACGUCUCAAUCAACUCUAUUCCAGGAGUUUUCUCCUGCAUACUCAACAGCUCGCAGUCAAG | -0.0641
GGUCACGUCUCAAUCAACUCCACAGAGGGGGGGAAAACCCCUUUACCCUCCUAAUCAACAGCUCGCAGUCAAG | 0.215
GGUCACGUCUCAAUCAACUCUACUUCCAGGGAAAUCCCUGGUUAUCUCAACAGCUCGCAGUCAAG | 0.238
GGUCACGUCUCAAUCAACUCAUUCCCAGGAGUUUGCUCCUGCUAUUUCAACAGCUCGCAGUCAAG | -0.142
GGUCACGUCUCAAUCAACUCUUCUUCAGGAGUUUACUCCUGCUUUUUCAACAGCUCGCAGUCAAG | -0.114
GGUCACGUCUCAAUCAACUCAACUUCAGGAGUUUCCUCCUGUUAACUCAACAGCUCGCAGUCAAG | -0.023
GGUCACGUCUCAAUCAACUCAUCCUCCAGGGAAAACCCUGGUAAUUUCAACAGCUCGCAGUCAAG | 0.126
GGUCACGUCUCAAUCAACUCUUUCCCAGGAGUUUCCUCCUGCAAAUUCAACAGCUCGCAGUCAAG | 0.11
GGUCACGUCUCAAUCAACUCUAUGUCAGGAGUUUCCUCCUGCUUUUUCAACAGCUCGCAGUCAAG | 0.00272
GGUCACGUCUCAAUCAACUCCAUAGAGGGGGGGAAAACCCCUUUACCCUCAAAUUCAACAGCUCGCAGUCAAG | -0.366
GGUCACGUCUCAAUCAACUCAUCCCCCAGGGAAAUCCCUGGCAAACUCAACAGCUCGCAGUCAAG | -0.194
GGUCACGUCUCAAUCAACUCACUAGAGGGGGGGAAAACCCCUUUGCCCUCACCAUCAACAGCUCGCAGUCAAG | 0.196
GGUCACGUCUCAAUCAACUCUUUUUCCAGGGAAACCCCUGGCUUACUCAACAGCUCGCAGUCAAG | 0.114
GGUCACGUCUCAAUCAACUCAAUUCCAGGAGUUUCCUCCUGUAUUCUCAACAGCUCGCAGUCAAG | 0.135
